This passage reports cytotoxicity call and growth inhibition call results from the antibiotic and cytotoxicity screens of Wong et al. (2023).

This is one part of the list.

One assay has as its system HSkMC. Kind of assay: cytotoxicity call (relative viability < 0.9). Conditions: 10 µM.
A further assay relates to S. aureus RN4220. Kind of assay: growth inhibition call (relative growth <= 0.2). To be noted: 50 µM.

For the compound `C[C@@H]1CN([C@H](C)CO)C(=O)c2cc(NS(=O)(=O)c3ccccc3)ccc2O[C@@H](C)CCCCO[C@H]1CN(C)Cc1ccc(Cl)c(Cl)c1`, the cytotoxicity call in the assay on HSkMC was “inactive”. In addition, in the assay with S. aureus RN4220, the growth inhibition call was “inactive”.

On to `O=P(O)(O)CN1CCN(CP(=O)(O)O)CCN(CP(=O)(O)O)CCN(CP(=O)(O)O)CC1`, for which, in the assay with HSkMC, the cytotoxicity call is “inactive”. Moreover, in the assay with S. aureus RN4220, the growth inhibition call was “inactive”.

Consider `Cc1cccc2c1OCC[C@@H](N)C2=O`, for which the cytotoxicity call in the assay on HSkMC is “inactive”. For the same compound, in the assay with S. aureus RN4220, the growth inhibition call is “inactive”.

As to `Cc1ccc(S(=O)(=O)N(C)C[C@@H]2Oc3ccc(NS(C)(=O)=O)cc3C(=O)N([C@H](C)CO)C[C@@H]2C)cc1`, in the assay with HSkMC, the cytotoxicity call is “inactive”. Also, the growth inhibition call in the assay with S. aureus RN4220 was “inactive”.

`O=C(Cn1ccc([N+](=O)[O-])n1)N1CCOCC1`: in the assay on HSkMC, the cytotoxicity call is “inactive”. The growth inhibition call with S. aureus RN4220 is “inactive”.

For the compound `COc1ccc(OC)c(S(=O)(=O)N2[C@@H]3CC[C@@H](C3)[C@H]2c2nc3cccc(OCc4ccc(F)cc4)c3[nH]2)c1`, the cytotoxicity call in the assay with HSkMC is “inactive”. Besides, the growth inhibition call with S. aureus RN4220 was “inactive”.

`Nn1c(CO)nc2ccccc21`: the cytotoxicity call in the assay with HSkMC is “inactive”. The growth inhibition call with S. aureus RN4220 is “inactive”.

Regarding `C[C@@H]1CCCCO[C@@H](CN(C)C(=O)CCCN(C)C)[C@H](C)CN([C@H](C)CO)C(=O)c2cc(NC(=O)Nc3cccc4ccccc34)ccc2O1`, the cytotoxicity call in the assay on HSkMC is “inactive”. In the assay on S. aureus RN4220, the growth inhibition call was “inactive”.

With `COc1ccc(NC(=O)Nc2ccc3c(c2)C(=O)N([C@@H](C)CO)C[C@@H](C)[C@@H](CN(C)S(=O)(=O)c2ccc(F)cc2)OCCCC[C@H](C)O3)cc1`, in the assay on HSkMC, the cytotoxicity call was “inactive”. Also, the growth inhibition call in the assay on S. aureus RN4220 is “inactive”.

In the case of `COc1ccc(NC(=O)Nc2ccc3c(c2)C(=O)N([C@H](C)CO)C[C@H](C)[C@H](CN(C)CC2CCCCC2)OCCCC[C@H](C)O3)cc1`, in the assay on HSkMC, the cytotoxicity call is “inactive”. For the same compound, in the assay with S. aureus RN4220, the growth inhibition call was “inactive”.

`C[C@H]1CN([C@@H](C)CO)C(=O)Cc2cc(NC(=O)Nc3ccc4c(c3)OCO4)ccc2O[C@@H]1CN(C)Cc1ccc(C(F)(F)F)cc1`: the cytotoxicity call in the assay with HSkMC is “inactive”. Also, the growth inhibition call with S. aureus RN4220 is “inactive”.

Regarding `C[C@@H]1O[C@@H](OC[C@H]2O[C@@H](Oc3cc(O)c4c(c3)O[C@@H](c3ccc(O)cc3)CC4=O)[C@H](O)[C@@H](O)[C@@H]2O)[C@H](O)[C@H](O)[C@H]1O`, in the assay on HSkMC, the cytotoxicity call is “inactive”. For the same compound, the growth inhibition call with S. aureus RN4220 was “inactive”.

Turning to `C[C@@H]1CCCCO[C@@H](CN(C)S(=O)(=O)c2ccc(F)cc2)[C@@H](C)CN([C@@H](C)CO)C(=O)c2cc(NC(=O)Nc3cccc4ccccc34)ccc2O1`, the cytotoxicity call in the assay on HSkMC is “inactive”. The growth inhibition call in the assay on S. aureus RN4220 was “inactive”.

As to `Cc1ccc(S(=O)(=O)N(C)C[C@H]2OCCCC[C@@H](C)Oc3ccc(NC(=O)NC4CCCCC4)cc3C(=O)N([C@@H](C)CO)C[C@@H]2C)cc1`, the cytotoxicity call in the assay on HSkMC is “inactive”. In addition, the growth inhibition call in the assay on S. aureus RN4220 was “inactive”.

Regarding `C[C@H]1CN([C@@H](C)CO)C(=O)c2cc(C#CC3(O)CCCC3)cnc2O[C@H]1CN(C)C(=O)Cc1ccccc1`, the cytotoxicity call in the assay with HSkMC was “inactive”. In addition, the growth inhibition call with S. aureus RN4220 is “inactive”.

With `O=C(O)CN1CCCCC1=O`, in the assay with HSkMC, the cytotoxicity call is “inactive”. Also, in the assay on S. aureus RN4220, the growth inhibition call is “inactive”.

As for `C[C@@H]1CN([C@H](C)CO)C(=O)Cc2cc(NS(=O)(=O)c3cn(C)cn3)ccc2O[C@H]1CN(C)Cc1ccc(C(=O)Nc2ccccc2N)cc1`, in the assay with HSkMC, the cytotoxicity call is “inactive”. Further, the growth inhibition call in the assay with S. aureus RN4220 was “inactive”.

Regarding `Cc1noc(C)c1NC(=O)N(C)C[C@H]1OCCCC[C@H](C)Oc2ccc(NC(=O)Nc3cccc4ccccc34)cc2C(=O)N([C@H](C)CO)C[C@@H]1C`, the cytotoxicity call with HSkMC is “inactive”. The growth inhibition call in the assay with S. aureus RN4220 is “inactive”.

Regarding `COc1ccc(C(=O)Nc2ccc(CN3C(=O)[C@]4(O[C@H](CCO)[C@@H]([Si](C)(C)F)[C@@H]4C)c4ccccc43)cc2)cc1`, in the assay on HSkMC, the cytotoxicity call was “inactive”. For the same compound, the growth inhibition call in the assay with S. aureus RN4220 is “inactive”.

For `C[C@@H]1CCCCO[C@@H](CN(C)S(=O)(=O)c2cn(C)cn2)[C@H](C)CN([C@H](C)CO)C(=O)c2cc(N(C)C)ccc2O1`, the cytotoxicity call with HSkMC is “inactive”. Besides, in the assay with S. aureus RN4220, the growth inhibition call was “inactive”.

Take `CC(C)Oc1ccc(Cl)cc1CN`: in the assay with HSkMC, the cytotoxicity call is “inactive”. The growth inhibition call in the assay on S. aureus RN4220 was “inactive”.

Regarding `C[C@@H]1CCCCO[C@@H](CN(C)CC2CC2)[C@H](C)CN([C@H](C)CO)C(=O)c2cc(NC(=O)Nc3cccc4ccccc34)ccc2O1`, in the assay with HSkMC, the cytotoxicity call was “inactive”. In addition, in the assay on S. aureus RN4220, the growth inhibition call was “inactive”.

Turning to `CO[C@@H]1CN(C)C(=O)c2ccc(NC(=O)NC(C)C)cc2OC[C@H](C)N(Cc2ccc(-c3ccccn3)cc2)C[C@@H]1C`, the cytotoxicity call with HSkMC is “inactive”. Further, in the assay on S. aureus RN4220, the growth inhibition call was “inactive”.

For `C[C@@H]1CCCCO[C@@H](CN(C)S(=O)(=O)c2ccccc2)[C@H](C)CN([C@H](C)CO)C(=O)c2cc(NC(=O)Nc3cccc4ccccc34)ccc2O1`, in the assay on HSkMC, the cytotoxicity call was “inactive”. For the same compound, in the assay on S. aureus RN4220, the growth inhibition call is “inactive”.

With `Cc1noc(C)c1S(=O)(=O)Nc1ccc2c(c1)C(=O)N([C@H](C)CO)C[C@H](C)[C@@H](CN(C)S(=O)(=O)c1cn(C)cn1)OCCCC[C@H](C)O2`, the cytotoxicity call in the assay with HSkMC is “inactive”. The growth inhibition call in the assay with S. aureus RN4220 was “inactive”.

For the compound `Nn1c(-c2ccncc2)n[nH]c1=S`, the cytotoxicity call in the assay with HSkMC was “inactive”. Further, the growth inhibition call in the assay on S. aureus RN4220 was “inactive”.

On to `C[C@@H]1CN([C@@H](C)CO)C(=O)c2cc(NS(C)(=O)=O)ccc2O[C@@H](C)CCCCO[C@H]1CN(C)CC1CC1`, for which the cytotoxicity call in the assay with HSkMC is “inactive”. Also, in the assay on S. aureus RN4220, the growth inhibition call is “inactive”.

As to `COc1ccc(C=CC(=O)O)cc1OC`, the cytotoxicity call in the assay on HSkMC (human skeletal muscle cells) was “inactive”. Besides, the growth inhibition call in the assay with S. aureus RN4220 is “inactive”.

Consider `C[C@@H]1CCCCO[C@@H](CN(C)CC2CCCCC2)[C@@H](C)CN([C@@H](C)CO)C(=O)c2cc(NC(=O)NC3CCCCC3)ccc2O1`, for which the cytotoxicity call with HSkMC was “inactive”. Besides, the growth inhibition call in the assay with S. aureus RN4220 was “inactive”.

Turning to `CC(C)(O)C1CCC(C)(C2C(O)CC3(C)C4CC(OC5OC(CO)C(O)C(O)C5O)C5C(C)(C)C(OC6OCC(O)C(O)C6O)CCC56CC46CCC23C)O1` (stereo not given), the cytotoxicity call with HSkMC was “inactive”. Besides, the growth inhibition call with S. aureus RN4220 is “inactive”.
